Measurements reported in article PMC4336329 (PLoS ONE, 2015).
The campaign covered roughly 310,000 compounds. About 2,200 (0.71%) showed an effect of 50% or more. Effects have a minus sign here. The list shows a part of the results.

Target: human ether-à-go-go-related gene (hERG) potassium channel (human, UniProt Q12809)
Test: primary screen, population patch clamp on CHO cells stably expressing hERG

Sequence of human ether-à-go-go-related gene (hERG) potassium channel (Q12809 whole entry, looked up): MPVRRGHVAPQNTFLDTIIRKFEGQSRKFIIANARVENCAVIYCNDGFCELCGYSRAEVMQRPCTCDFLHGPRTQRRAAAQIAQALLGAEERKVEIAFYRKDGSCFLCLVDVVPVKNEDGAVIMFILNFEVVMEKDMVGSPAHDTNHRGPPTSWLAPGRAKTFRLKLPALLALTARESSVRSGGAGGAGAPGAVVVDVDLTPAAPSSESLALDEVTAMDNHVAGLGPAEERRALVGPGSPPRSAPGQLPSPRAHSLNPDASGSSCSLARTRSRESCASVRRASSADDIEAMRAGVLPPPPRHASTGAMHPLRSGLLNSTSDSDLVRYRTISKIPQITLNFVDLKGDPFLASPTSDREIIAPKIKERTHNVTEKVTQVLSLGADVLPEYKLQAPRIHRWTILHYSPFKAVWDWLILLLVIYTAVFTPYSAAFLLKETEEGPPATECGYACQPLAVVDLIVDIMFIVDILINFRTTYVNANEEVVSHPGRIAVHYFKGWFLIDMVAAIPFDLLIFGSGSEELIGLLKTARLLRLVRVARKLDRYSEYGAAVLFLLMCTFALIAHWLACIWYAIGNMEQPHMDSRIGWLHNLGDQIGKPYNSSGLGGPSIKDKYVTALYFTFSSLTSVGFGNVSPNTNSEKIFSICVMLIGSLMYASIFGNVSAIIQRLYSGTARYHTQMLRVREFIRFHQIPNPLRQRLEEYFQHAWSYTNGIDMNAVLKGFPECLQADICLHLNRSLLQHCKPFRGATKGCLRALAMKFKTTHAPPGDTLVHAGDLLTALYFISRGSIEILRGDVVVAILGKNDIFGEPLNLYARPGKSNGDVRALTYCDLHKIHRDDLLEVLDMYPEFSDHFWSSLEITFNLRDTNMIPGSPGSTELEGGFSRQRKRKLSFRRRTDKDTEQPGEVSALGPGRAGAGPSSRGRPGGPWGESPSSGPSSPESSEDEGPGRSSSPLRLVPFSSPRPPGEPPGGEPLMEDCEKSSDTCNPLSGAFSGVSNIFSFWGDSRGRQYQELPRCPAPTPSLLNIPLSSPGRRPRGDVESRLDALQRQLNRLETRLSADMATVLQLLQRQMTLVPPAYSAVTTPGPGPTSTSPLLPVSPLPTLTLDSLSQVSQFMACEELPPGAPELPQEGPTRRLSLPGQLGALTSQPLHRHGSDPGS

Structure (SMILES) | hERG current change (%, negative = inhibition) at 1uM
CCCN1CCN(CCCNC(=O)c2cc3c(=O)n(C)c4ccccc4c3n2C)CC1 | 4.91%
COc1ccc(N2C(=O)c3ccc(C(=O)Nc4ccccc4O)cc3C2=O)cc1 | 14.7%
Cc1ccc(S(=O)(=O)Nc2nsc(N)n2)cc1 | 13.9%
C/C(CC(=O)Nc1cc(Cl)ccc1Cl)=N\NC(=O)c1ccccc1Br | 7.09%
Cc1cc(-n2cnc(-c3cn[nH]c3C)n2)no1 | 14%
CN(C)c1ccc(Cl)cc1N.Cl | 6.95%
Cc1ccc(NC(=O)COC(=O)CCCC2=NS(=O)(=O)c3ccccc3N2)cc1C | 10.8%
COC(=O)c1ccc(NC(=O)C23CCC(C)(C(=O)O2)C3(C)C)cc1 (stereo not shown) | 9.91%
COc1ccc(/C=N\NS(=O)(=O)c2ccc(Br)cc2)cc1COc1ccccc1[N+](=O)[O-] | 13.1%
O=C1COC(c2ccccc2)C2CCCCN12 (stereo not shown) | 12.4%
O=c1c2cnn(-c3ccccc3)c2nc(-c2cccs2)n1-c1ccc(Br)cc1 | -6.26%
Cc1nnc(NC(=O)c2ccc(S(=O)(=O)N(C)c3ccccc3)cc2)s1 | 11.9%
Cc1ccc(S(=O)(=O)NNC(=O)Cc2cccn2C)cc1 | 15.4%
Cc1ccc(C)c(OCCC(=O)NNC(=O)c2ccccc2)c1 | 10.8%
Cn1c2c(c(=O)n(C)c1=O)C(CC(=O)Nc1ccccc1F)C(=O)N2 (stereo not shown) | 14.2%
CC1CC(CC(=O)NC(=S)Nc2ccccc2Cl)C(=O)O1 (stereo not shown) | 19.6%
CC(=O)Nc1cc(C(=O)O)ccc1S(=O)(=O)c1ccc(C)cc1 | 6.45%
CC(=O)c1sc(NC(=O)c2ccc(COc3ccccc3Cl)o2)nc1C | 16.4%
CCCC(C(=O)OCC)P(=O)(c1ccccc1)c1ccccc1 (stereo not shown) | -0.896%
COC(=O)Cc1[nH]c(Cl)nc1C(N)=O | 11.4%

Structure (SMILES) | hERG current change (%, negative = inhibition) at 1uM
CC(=O)c1ccc(NC(=O)[C@@H]2CCCN2C2=NS(=O)(=O)c3ccccc32)cc1 | 8.48%
O=C(Nc1ccc2ccccc2c1)N1C[C@H]2C[C@@H](C1)c1cccc(=O)n1C2 | 9.9%
C=CCN1CC(=O)N2C(C)c3[nH]c4ccccc4c3C[C@H]2C1=O (stereo partly shown) | 15.5%
CN(C)CCNC(=O)/C(=N\O)c1ccccn1 | 7.21%
CCC1(CC)NC(=O)N(CC(=O)OC(C)C(=O)Nc2ccccc2OC)C1=O (stereo not shown) | 25.9%
CC(=O)Nc1sc2c(c1C(N)=O)CCCC2 | 23.9%
CC(=O)N=c1sc2c3ccccc3ccc2n1C | 13.9%
O=C(/C=C/NNC(=O)c1ccccc1)c1ccc(Br)cc1 | 4.11%
COc1cc(/C=C2\SC(=S)N(CCC(=O)Nc3ccccc3)C2=O)cc(OC)c1OC | 5.17%
O=C(O)CC1(CC(=O)NCc2csc(-c3cccs3)n2)CCCCC1 | 5.04%
Cc1cccc(-n2c(O)c(C=Nc3ccc4c(c3)OCO4)c3ccccc3c2=O)n1 | 7.07%
CCc1ccc(NC(=O)NCc2ccccn2)cc1 | 5.57%
N#Cc1c(N2CCCCC2)nc(N)c2c(N)nc(SCC(=O)O)cc12 | 8.09%
O=C(Nc1ccc2c(c1)OCO2)C(c1ccc(Cl)cc1)N1CCN(C(=O)c2ccco2)CC1 (stereo not shown) | -2.42%
COc1ccc(/C=C(\NC(=O)c2ccccc2)C(=O)NCc2ccco2)cc1OC | 16.6%
CC(NC(=O)c1ccccc1Br)c1nnc(SCC(=O)NC2CCCCC2)n1C (stereo not shown) | 5.31%
Cc1nnc(SCC(=O)N2CC(=O)Nc3ccccc32)n1Cc1ccccc1 | 0.0402%
Cc1oc(C(C)(C)C)cc1C(=O)NC1CCN(Cc2ccccc2)CC1 | 3.76%
N#CC1=C(N)C(C#N)(C#N)C2(C(=O)Nc3ccccc32)C2CCCC=C12 (stereo not shown) | 11%
COc1ccc(NC2=NCCC2)cc1 | 8.02%

Structure (SMILES) | hERG current change (%, negative = inhibition) at 1uM
COc1ccnc(Oc2ccccc2)n1 | 8.18%
COc1ccc(N(C(=O)c2csnn2)C(C(=O)NC2CCCC2)c2ccccc2)cc1 (stereo not shown) | 1.22%
Cc1nc2ccc(NC(=O)c3sccc3C)cc2s1 | 3.32%
CCc1ccc(OCC(=O)O/N=C(\N)Cc2ccc([N+](=O)[O-])cc2)cc1 | -9.98%
Fc1ccc(SCCc2ccncc2)cc1 | -1%
COc1ccc(CN(C)C(=O)C2CSC3(C)CCC(=O)N23)cc1OC (stereo not shown) | 13.3%
CCc1cccc(C)c1NS(=O)(=O)c1cccs1 | 3.86%
CS(=O)(=O)c1ccc(NC(=O)c2cccc(-n3cnnn3)c2)cc1 | 14.8%
COc1ccc(C2=NOC(C(=O)NC(C)C)C2)cc1 (stereo not shown) | 19.2%
CCOC(=O)CN(C(=O)CN1CCOCC1)c1ccc(Br)cc1 | -5.97%
Cc1nn(CCCC(=O)NCCc2ccccc2)c(=O)c2nn(-c3ccccc3)c(C)c12 | 9.68%
Cc1cc(C)cc(C(=O)NCC(=O)NNC(=O)CSc2ccccc2F)c1 | 14.5%
Cc1ccc(C(=O)Nc2ccc(C(=O)N/N=C/c3ccc(C)o3)cc2)cc1 | 12.1%
Cc1ccc(S(=O)(=O)CC(=O)NC(C)c2ccccc2)cc1 (stereo not shown) | 7.07%
Cc1nc2ccc(NC(=O)c3ccc(S(=O)(=O)N4CCOCC4)cc3)cc2s1 | -3.72%
Cc1ccc(C(C(=O)NC2CCCC2)N2CCc3ccccc32)cc1 (stereo not shown) | 10.6%
Cc1cccc(C(=O)NCC(=O)OCC(=O)N(C)CC(=O)Nc2ccc(F)cc2)c1 | 11%
CCCCC1(C)NC(=O)N(CC(=O)Nc2ccc(S(=O)(=O)N3CCOCC3)cc2)C1=O (stereo not shown) | 10.5%
